# According to PubChem BioAssay AID488969 (Vanderbilt High Throughput Screening Facility, 2010):
# In all, about 110,000 compounds were measured (“z-score”: median about -0.1, highest 2% from about 2 on). The list shows a part of the results. Active and inactive are the calls of the source.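 Rule for the calls: active = z-score in the third read window above 3 or below -3; inactive = the rest.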
# Biological target: Metabotropic glutamate receptor 8 (Rattus norvegicus) (UniProt P70579)
# Experiment: mGluR8 Gi/Go-coupled signaling modulation – cell-based, rat, thallium flux, HTS, primary screen (AID 488969)
# Details: HEK293 rat mGluR8, GIRK (G protein-gated inwardly rectifying potassium channel) thallium flux, FluoZin2; at 10 µM; stronger effect = higher value; submaximal glutamate (EC20) added with thallium
# UniProt P70579, sequence (P70579 whole entry, looked up): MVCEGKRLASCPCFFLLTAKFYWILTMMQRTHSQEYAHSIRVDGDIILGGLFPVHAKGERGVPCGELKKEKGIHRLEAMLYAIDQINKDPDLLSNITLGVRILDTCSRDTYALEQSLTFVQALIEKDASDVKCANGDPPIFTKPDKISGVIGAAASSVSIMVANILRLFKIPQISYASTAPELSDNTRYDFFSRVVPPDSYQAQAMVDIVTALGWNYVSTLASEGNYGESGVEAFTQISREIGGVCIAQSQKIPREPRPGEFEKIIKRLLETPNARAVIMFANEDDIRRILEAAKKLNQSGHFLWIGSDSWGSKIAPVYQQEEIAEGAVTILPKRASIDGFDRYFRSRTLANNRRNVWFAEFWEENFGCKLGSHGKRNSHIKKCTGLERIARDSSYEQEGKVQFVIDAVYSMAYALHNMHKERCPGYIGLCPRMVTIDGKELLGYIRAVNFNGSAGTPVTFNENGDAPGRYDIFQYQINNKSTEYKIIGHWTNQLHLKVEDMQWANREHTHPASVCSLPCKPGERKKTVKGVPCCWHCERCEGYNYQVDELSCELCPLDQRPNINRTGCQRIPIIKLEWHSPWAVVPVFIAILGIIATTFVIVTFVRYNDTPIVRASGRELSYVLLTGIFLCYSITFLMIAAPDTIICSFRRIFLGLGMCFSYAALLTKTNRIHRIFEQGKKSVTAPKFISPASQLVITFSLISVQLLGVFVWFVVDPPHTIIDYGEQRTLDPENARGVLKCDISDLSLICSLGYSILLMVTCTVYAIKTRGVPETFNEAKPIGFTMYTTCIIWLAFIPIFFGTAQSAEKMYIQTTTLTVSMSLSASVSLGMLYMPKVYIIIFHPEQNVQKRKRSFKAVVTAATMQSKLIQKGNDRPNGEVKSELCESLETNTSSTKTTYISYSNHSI
row,Structure (SMILES),z-score
1,S=C(NCc1ccccc1)NCc1ccc2c(c1)OCO2,1.86
2,Cc1ccccc1N1CCN(C(=S)c2ccccc2)CC1,-0.0651
3,CCN(C(=O)c1cc2ccccc2oc1=O)c1cccc(C)c1,0.00276
4,CC(C)(C)C(=O)Nc1nnc(SCC(=O)Nc2ccc3c(c2)OCO3)s1,-0.149
5,Cc1ccccc1[C@@H]1C(C#N)=C(N)S[C@H]1C(=O)c1ccccc1,-0.0123
6,FC(F)C(F)(F)C1=CC(c2cccs2)=NCCN1,0.987
7,CC1CCC(Nc2nnnn2-c2ccccc2)CC1 (stereo unspecified),-0.066
8,COc1cc(CCC(=O)Nc2cc(Cl)ccc2N2CCN(C)CC2)cc(OC)c1OC,-0.754
9,Cc1ccc(NC(=S)NCC(C)C)cc1,-0.269
10,Cc1c(C(=O)N2CCCC2)sc(NC(=O)c2cccs2)c1C#N,-0.577
11,Clc1ccc(CSc2cc3c(nn2)-c2ccccc2CC3)cc1,-0.16
12,CCC(C)NC(=O)c1ccc(CS(=O)(=O)Cc2ccc(Cl)cc2)o1 (stereo unspecified),0.00651
13,O=C(Cn1cnc2c(cnn2-c2ccc(F)cc2)c1=O)N1CCN(c2ccccc2F)CC1,-0.0382
14,CCCCN1C=C(C(=O)OC)C(c2ccccc2C(F)(F)F)C(C(=O)OC)=C1,-0.0636
15,C=CCN=c1scc(-c2ccccc2)n1/N=C/c1ccccn1,-1.65
16,CCCCNC(=O)/C(C#N)=C/c1ccc(-c2ccc(S(=O)(=O)N3CCOCC3)cc2)o1,0.164
17,O=C1NC(c2cn(-c3ccccc3)nc2-c2cccs2)C(C(=O)c2cccnc2)C(O)(C(F)(F)F)N1 (stereo unspecified),-0.106
18,Cn1c(CN2CCOCC2)nnc1SCC(N)=O,0.0469
19,CCN(CCCNC(=O)Cn1ncc2c(=O)oc3ccccc3c21)c1cccc(C)c1,-0.306

row,Structure (SMILES),z-score
1,O=C1CN(c2ccccc2F)C(=O)CN1c1ccccc1F,-0.0359
2,Cc1ccc(OCC(=O)N/N=C\c2ccc(-c3cccc(C(=O)O)c3)o2)c(C)c1,active: 3.24
3,COc1ccc(C(=O)CN(Cc2ccccc2)C2=NCCS2)cc1,0.156
4,CCCN1C(=O)/C(=C/c2ccc(C)o2)SC1=Nc1ccc(OCC)cc1,-0.0168
5,O=c1c(-c2ccc3c(c2)OCCO3)c(C(F)(F)F)oc2cc(O)cc(O)c12,-0.788
6,O=C(CCS(=O)(=O)c1ccc(Cl)cc1)N1CCN(c2ccccc2F)CC1,0.26
7,COc1ccc(NC(=O)c2cccnc2Cl)c(S(=O)(=O)N2CCOCC2)c1,0.247
8,Cc1cc(C)n(CCC(=O)N/N=C/c2ccccc2O)n1,0.119
9,Oc1c(Br)cc(C2N=C(c3ccccc3Cl)NO2)cc1Br (stereo unspecified),-0.268
10,CCN(CC)C(=O)CSc1nnc(-c2ccccc2)c(-c2ccccc2)n1,-0.489
11,CCN1CCc2nc(NC(=O)Cc3ccc4c(c3)OCCO4)sc2C1,0.109
12,CC(=O)NC(c1ccccc1)c1nc2ccccc2[nH]1 (stereo unspecified),0.479
13,CCCC(C)C(=O)N(Cc1ccccc1)c1ccccn1 (stereo unspecified),0.0978
14,CCCCC(O)(CCCC)C(=O)NN(C(=O)CCl)c1ccccc1,-0.259
15,CC(C)(C)c1ccc(OC(=O)CN2C(=O)C3C4CCC(C4)C3C2=O)cc1 (stereo unspecified),-0.113
16,CC(C)C(NC(=O)c1ccc2c(c1)OCO2)C(=O)N/N=C\c1ccco1 (stereo unspecified),-0.000464
17,NC(=O)CSc1nc2scc(-c3ccc(Cl)cc3)c2c(=O)n1Cc1ccccc1,-0.0513
18,CCCCn1ccnc1C(=O)c1ccc(S(=O)(=O)N(CCOC)CCOC)cc1,1.36
19,CCn1c(CCNC(=O)c2ccc(Cl)c(Cl)c2)nnc1SCCOc1ccc(OC)cc1,-0.213

row,Structure (SMILES),z-score
1,Cc1cc(O)c(-c2cc(C(=O)Nc3ccc(S(=O)(=O)N4CCOCC4)cc3)[nH]n2)cc1C,-0.196
2,CCN(CC)S(=O)(=O)c1ccc(NC(=S)NC(=O)CC(C)C)cc1,-0.282
3,CCCCSc1nc(SCC(=O)NCc2ccco2)c2c3c(sc2n1)COC(C)(CC)C3 (stereo unspecified),-0.0456
4,Cc1cc2cc(CCNC(=O)c3ccc(S(=O)(=O)N4CCOCC4)cc3)c(=O)[nH]c2cc1C,-0.854
5,O=C1C=C(NCc2ccco2)CCC1,2
6,CC(C)C(=O)NC(NCC1CCCO1)C(Cl)(Cl)Cl (stereo unspecified),-0.0356
7,CC1=NC(=O)C(N=Nc2cccc(O)c2)N1c1ccccc1 (stereo unspecified),-0.139
8,Cc1ccc(Cn2nc(-c3ccccc3)nc2-c2ccccc2)cc1,0.0387
9,CN(CC(=O)Nc1ccccc1Cl)C(=O)CSc1ncc(C(F)(F)F)cc1Cl,-0.0158
10,CC(C)NC(=O)c1cc2cc([N+](=O)[O-])ccc2s1,-0.0773
11,COC(=O)Cn1c(=O)c2c(nc(Br)n2Cc2ccccc2Cl)n(C)c1=O,-0.417
12,COc1ccc(OCc2nc3c4c(ncn3n2)-c2ccccc2CC42CCCC2)cc1,-0.0939
13,CC(C)N(CCNS(=O)(=O)c1ccc(Cl)cc1)C(C)C,-0.192
14,Clc1ccc(/C=N/Nc2nn[nH]n2)cc1,-1.27
15,CCCCn1c(O)c(N=Nc2ccccn2)c2ccccc21,2.97
16,Cc1cc2c(c(N3CCOCC3)n1)C(=O)OC2,-0.0495
17,CC(C)(O)c1cn(-c2nonc2N)nn1,0.304
18,CCCCn1nnc(NC(=O)COc2ccc(Cl)c(C)c2)n1,0.0561
